Measured values from PubChem BioAssay AID1963576 (National Center for Advancing Translational Sciences (NCATS), 2024).
Out of some 46,000 compounds screened, about 60 (0.1%) were called active. Roughly 3% stayed inconclusive and do not appear here. The call rests on the fitted dose curve; in most records, active means well fitted inhibition curve with a large enough effect; inconclusive means small, poorly fitted or top-dose-only effect; inactive means no such curve, though single readings can be large or run the other way. Some of the results follow.

Assay: Primary qHTS assay for Inhibitors of ovarian cancer metastasis using an organotypic tumor microenvironment (TME) model. Further: nearly all actives have a fitted effect of over 65% in size.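 On activity change, negative = inhibition: plate controls were DMSO wells for no effect and tomatine positive control wells for full effect.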
Settings: SKOV3ip1-GFP adhesion/invasion on 3D omental model, fluorescence; series mostly up to 45.8 µM; activity change, negative = inhibition: at the top concentration
Summary of the method: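 qHTS, 4-pt dose (0.36-46 umol/L); SKOV3ip1-GFP, 1,200 cells/well, no FBS; primary omental fibroblast/mesothelial co-culture 48 h pre-grown; 2 h RT + 16 h 37 C; PBS wash, 4% PFA; GFP count 488/509 nm.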

outcome, inactive:
Cc1cc(C)c2c(=O)c3c(oc2c1)C(=O)N(Cc1ccc(F)cc1)C3c1cccc(O)c1 (centres undefined), COc1ccccc1CNC(=O)CN1C(=O)CSc2c1c(C)nn2-c1ccccc1, CCCC(=O)NCC(c1ccc2c(c1)OCO2)N1CCOCC1 (centres undefined), Cc1ccc(CNC(=O)CN(c2ccc(C(C)C)cc2)S(=O)(=O)c2c(C)n[nH]c2C)cc1, COc1ccc(S(=O)(=O)NCCc2nnc3ccc(SCC(=O)Nc4ccc(C(F)(F)F)cc4)nn23)cc1, CCc1ccc(NC(=O)c2cc(-c3cccs3)on2)cc1, CSc1ccc(CCNC(=O)CCc2c(C)nc3c(-c4ccccc4)c(C)nn3c2C)cc1, O=C(c1cnc2cc(-c3ccccc3)nn2c1)c1cc([N+](=O)[O-])ccc1O, COc1cccc(/C=C/c2nc(C#N)c(N3CCCCC3)o2)c1, CCOc1ccc(CCNC(=O)CS(=O)Cc2nc(-c3ccc(C)cc3)oc2C)cc1OCC (centres undefined), COc1ccccc1CNC(=O)C1CCCN(c2nn3cc(-c4ccc(F)cc4)nc3s2)C1 (centres undefined), Cc1cc(Cl)ccc1NC(=O)CN1C(=O)CSc2ccc(S(=O)(=O)N(C)C)cc21, CC(=O)c1ccc(NC(=O)c2ccc3c(c2)N(Cc2cccc(Cl)c2)C(=O)c2ccccc2S3(=O)=O)cc1, CC(C)c1nn2c(=O)cc(COC(=O)CNC(=O)c3ccccc3Cl)nc2s1, CCN1CCN(c2nnc(-n3cccc3C(=O)Nc3cccc(OC)c3)s2)CC1, COc1ccc(C2CC(=O)c3c(C)nc(N4CCN(C=O)CC4)nc3C2)c(OC)c1 (centres undefined), CCn1c(=O)sc2cc(NC(=O)c3cccc(OC)c3)ccc21, CCC(C)n1c(SCc2ccc(C(C)(C)C)cc2)nc2ccsc2c1=O (centres undefined), CCOc1ccccc1NC(=O)CSc1nc2c([nH]c3ccccc32)c(=O)n1-c1ccccc1, Cc1cccc(OCC(=O)OCc2cc(=O)n3nc(-c4cccs4)sc3n2)c1, Cc1ccc(CSc2ccc3nnc(CCNS(=O)(=O)c4ccc(C)cc4)n3n2)cc1, CCOC(=O)c1cc(-c2ccccc2)n(-c2cccc(C(=O)Nc3cccc(C)c3)c2)c1C, CCc1nn(Cc2cccc(F)c2)c(=O)c2cc3cc(C)ccc3n12, Cc1nn(-c2ccccc2)c(OC(=O)c2ccc(F)cc2)c1S(=O)(=O)c1ccccc1, Cc1ccc(CNC(=O)Cn2ncc3c([nH]c4ccc(C)cc43)c2=O)cc1

Activity change, negative = inhibition, inactive:
O=C(NCCSCc1c(F)cccc1Cl)C1CCN(S(=O)(=O)Cc2ccccc2)CC1 -12.7%, O=C(COc1ccc(Cl)cc1)Nc1ccccc1C(=O)OCc1cc(=O)n2ccsc2n1 5.31%, CC(C)(C)CC(=O)Nc1nnc2n1CCS2 1.79%, COc1ccc(Cn2ccnc2SCC(=O)Nc2ccc(C)cc2C)cc1 -2.79%, COc1cccc(NC(=O)CN2CCCN(S(=O)(=O)c3ccc(Br)cc3)CC2)c1 1.07%, Cc1ccc(C)c(N2CCN(C(=O)Cn3ncc4c(=O)oc5ccc(C)cc5c43)CC2)c1 2.05%, CC(=O)c1ccc(NS(=O)(=O)c2cc3[nH]c(=O)c(=O)[nH]c3cc2C)cc1 1.15%, CCOC(=O)c1c(NC(=O)/C=C/c2ccc(OC)c(OC)c2)sc(C(C)=O)c1C -8.69%, CCn1cc(C2N3CC4(CC)CN2CC(CC)(C3)C4=O)c2ccccc21 (centres undefined) 11.3%, O=C(CN1CCSc2ccccc21)N1CCN(c2ccccc2)CC1 -8.01%, Cc1cccc(-n2c3c(cc(-c4nc(-c5ccc(Cl)cc5)cs4)c2=O)C(=O)CC(C)(C)C3)c1 0.827%, COC(=O)c1ccc2c(=O)n(CCCCCC(=O)NCc3ccccc3)c(=O)[nH]c2c1 -4.56%, CCOc1ccccc1CNc1ncnc2c1nc1n2CCCC1 2.67%, Cc1ccccc1Cn1nc(C)c(NC(=O)c2cc(-c3ccc(F)cc3)on2)c1C 0.627%, O=C(C1CCCN(S(=O)(=O)c2cccc3nonc23)C1)N1CCN(c2cccc(Cl)c2)CC1 (centres undefined) 1.23%, CCCn1c(=N)c(C(=O)NCc2cccnc2)cc2c(=O)n3cc(C)ccc3nc21 2.12%, CCc1ccc(CSc2nc(-c3ccccc3OC)nc3c2Cc2c(CO)cnc(C)c2O3)cc1 -4.25%, Cc1ccc(Cn2ccn(CC(=O)Nc3ccccc3C(F)(F)F)c(=O)c2=O)cc1 -6.71%, CCOCCc1nn2c(=O)cc(COC(=O)COc3ccccc3Cl)nc2s1 4.08%, COc1ccccc1CNC(=O)CCc1c(C)nc2cc(-c3ccccc3OC)nn2c1C -0.264%, Cc1ccc(NC(=O)CN2CCCN(Cc3ccccc3Cl)S2(=O)=O)c(C)c1 -2.04%, COc1ccc(CNC(=O)Cn2ccc3cc(S(=O)(=O)N4CCCCC4)ccc32)c(OC)c1 5.17%, CCOc1ccccc1NC(=O)Cn1c(=O)n(CCCC(=O)NCCOC)c(=O)c2cc(OC)c(OC)cc21 9%, CCOC(=O)c1c(C)[nH]c(C)c1S(=O)(=O)N1CCC(C(=O)Nc2ccc(F)cc2F)CC1 16.4%, COC(=O)c1ccccc1NC(=O)CSc1nc(-c2ccccc2)cc(C(F)(F)F)n1 -10.9%, O=C(Cn1ccn(-c2ccc(F)c(F)c2)c(=O)c1=O)c1ccc(F)cc1 -5.78%, Cc1nnc(NC(=O)CSc2nccn2-c2ccc(Cl)cc2)s1 1.98%, CCOc1ccc(Cn2c(CNS(=O)(=O)c3c(C)cc(C)cc3C)nc3cccnc32)cc1 -0.445%, O=S(=O)(c1ccccc1)c1nc(-c2cccs2)oc1SCc1ccccc1Cl 9.59%, Cc1ccc(OCc2nc(-c3ccc(C(=O)N4CCN(c5cc(Cl)ccc5C)CC4)cc3)oc2C)cc1 -2.44%, Cc1ccc(Cl)cc1N1CCN(C(=O)c2cc3c(=O)n(C)c4ccccc4c3s2)CC1 5.61%, O=C(CC1NCCNC1=O)Nc1ccccc1F (centres undefined) 19%, COC(=O)c1ccc(C(=O)OC)c(NC(=O)N2CC3CCCN3c3ccccc32)c1 (centres undefined) 2.32%, CS(=O)(=O)c1cccc(CNc2nc(Nc3ccc4c(c3)CCC(=O)N4)ncc2C(F)(F)F)c1 42.9%, CCOC(=O)CC(=O)CSc1nc2ccccc2c(=O)n1-c1ccc(C(=O)NCCOC)cc1 6.82%, O=C(C1CC1)N1CCc2cc(Br)cc(S(=O)(=O)N3CCN(c4cccc(Cl)c4)CC3)c21 9.85%, Cc1ccc2nc(COc3cccc(NC(=O)COc4ccccc4F)c3)cc(=O)n2c1 -5.64%, COC(=O)c1ccccc1NC(=O)Cn1c(=O)nc(-c2ccccc2)c2cc(Cl)ccc21 5.56%, COc1ccc(Nc2c(-c3ccc(C)o3)nc3ccc(Cl)cn23)cc1 -1.98%, Cc1ccc(NC(=O)c2cc(S(=O)(=O)N3CCCc4ccccc43)ccc2F)cc1F -6.39%, Cc1ccc(-n2ncc(C(=O)N3CCN(c4ccccn4)CC3)c2C2CCN(C(=O)OC(C)(C)C)CC2)cc1 1.1%, CCC(C)NC(=O)Cn1c(=O)n(-c2ccc(Cl)c(Cl)c2)c(=O)c2c(C)c(C(=O)N(CC)CC)sc21 (centres undefined) 5.26%, NCC1CCC(C(=O)O)CC1 (centres undefined) 1.31%, CC1(C)CCC(CN2CCN(c3ccc(C(=O)NS(=O)(=O)c4ccc(NCC5CCOCC5)c([N+](=O)[O-])c4)c(Oc4cnc5[nH]ccc5c4)c3)CC2)=C(c2ccc(Cl)cc2)C1 22.1%, CCCCC(=O)Nc1cc2nn(-c3ccc(OCC)cc3)nc2cc1C 3.5%, Cc1cccc(C)c1Nc1c(-c2cccs2)nc2ncccn12 -5.4%, Cc1cccc(OCCSc2nc3ccc(NC(=O)c4cccs4)cc3s2)c1 1.16%, CS(=O)(=O)N1CCC(n2c(C(F)(F)F)nc3cccnc32)CC1 5.55%, Cn1c(=O)c2c(SCC(=O)NCC3CCCO3)nc(-c3cccc(F)c3)nc2n(C)c1=O (centres undefined) 7.25%, Cc1ccc(OCC(=O)Nc2cc(-c3nc4ccccc4[nH]3)ccc2C)c(C)c1 -16.4%, CC(=O)c1ccc(NC(=O)c2ccc(NC(=O)CCS(=O)(=O)c3cccs3)cc2)cc1 2.51%, Cc1cccc(Cn2cc(S(=O)(=O)c3ccc(Cl)cc3)c(=O)c3cc4c(cc32)OCO4)c1 0.0792%, COc1cccc(NC(=O)C(=O)NCCc2csc(-c3ccc(C)cc3)n2)c1 -13%, CCCn1cc(S(=O)(=O)c2ccc(C)cc2)c(=O)c2cc(OC)c(OC)cc21 2.77%, COc1ccc(C2=C(C)C(N3CCC(C(=O)Nc4cc(C)ccc4C)CC3)=NS2(=O)=O)cc1 -3.5%, CCN(C(=O)CCNC(=O)Cn1cnc2ccccc2c1=O)c1cccc(Cl)c1 6.27%, CCOC(=O)CSc1nc(-c2ccccc2)cc(C(F)(F)F)c1C#N 2.51%, Cc1ccc(NC(=O)c2c(C(=O)Nc3ccccc3)sc3nc(C)cc(=O)n23)c(C)c1 -8.72%, CSc1ncc(C(=O)NCc2ccc(Cl)cc2)c(C(F)(F)F)n1 1.62%, CCn1c(CN2CCCCC2)nc2cc(NC(=O)c3ccccc3[N+](=O)[O-])ccc21 -10.4%, COc1cccc(N2CCN(C(=O)c3cc4c(=O)n(Cc5cccs5)ccc4nc3C)CC2)c1 19.5%, CCOC(=O)c1ccc(NC(=O)c2csc3c2CCCC3)cc1 0.651%, O=C(Nc1cccc2cccnc12)c1cccc2ccccc12 -12.7%, CCOc1ccc(C(=O)Nc2ccc(C(=O)OCc3cc(=O)n4ccsc4n3)cc2)cc1 -0.536%, COC(=O)c1ccc(Cl)cc1NC(=O)NCc1c(-n2cccc2)sc2c1CCCC2 14%, Cc1cccc(NC(=O)Cn2cnc(S(=O)(=O)N3CCCC3)c2)c1C -12.3%, COc1ccccc1CCNC(=O)Cc1c(C)c2cc3c(C(C)(C)C)coc3c(C)c2oc1=O -3.8%, CCCc1cc(=O)[nH]c(SCc2nc(-c3ccc(C)cc3)no2)n1 -3.07%, COc1ccc(CCNC(=O)c2ccc(-n3c(C)cc4c3CCCC4)cc2)cc1OC -29%
